PubChem BioAssay AID2546 (National Center for Advancing Translational Sciences (NCATS), 2010)
The whole screen tested about 310,000 compounds, of which about 11,000 (3.5%) were called active. The inconclusive results got no clear call from the source; some entries with a clear call stand among them for comparison. Calls follow the shape of the dose curve; as a rule, active = well fitted inhibition curve with a large enough effect; inconclusive = small, poorly fitted or top-dose-only effect, or effect the other way; inactive = flat fitted curve, though single readings scatter. No potency is given beside an inconclusive call; the fits are too rough.

Assay: VP16 counterscreen qHTS for inhibitors of ROR gamma transcriptional activity;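 also: Gal4-VP16 expression switched on by copper sulfate through the metallothionein promoter; nearly all actives have a fitted effect of over 50% in size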
Conditions: Drosophila S2 Gal4-VP16 UAS-luciferase, luminescence, 20 h; activity, negative = inhibition: at 53.6 µM (top of the series)
% is scaled to controls: 0 for no effect and ±100 for the full control effect; potency is read from the fitted curve at half-maximal effect; tags tell the direction and shape of the fitted curve.

Row | SMILES | activity, negative = inhibition | Potency
1 | CCOc1ccccc1NC(=O)CSc1nnc(CNC(=O)c2c(F)cccc2Cl)o1 | inactive: 5.57% | 
2 | CCC(Sc1nc(C)cc(=O)[nH]1)C(=O)Nc1nc2c(s1)CCCC2 (stereo not given) | inactive: -8.16% | 
3 | CSc1cccc(NC(=S)N(CCCN2CCC(C)CC2)Cc2cccs2)c1 | inactive: 7.81% [at 10 µM] | 
4 | O=C1CSC(c2ccccn2)N1c1ccc(Cl)c(Cl)c1 (stereo not given) |  | inconclusive [inhibitor, single point]
5 | COc1ccc(N2CCN(CCCn3c(=S)[nH]c4ccccc4c3=O)CC2)cc1 |  | inconclusive [inhibitor, single point]
6 | O=C1/C(=C\c2ccccn2)SC(=S)N1Nc1ncc(C(F)(F)F)cc1Cl |  | inconclusive [inhibitor, single point]
7 | Cc1ccc(NC(=O)NC(=S)NC(=O)c2ccccc2)cc1 |  | inconclusive [inhibitor, single point]
8 | CC1=NN(c2ccc([N+](=O)[O-])cc2)C(=O)/C1=C\N(C)C |  | inconclusive [activator, single point]
9 | O=C(CSc1ccccc1C(=O)NCCCN1CCCC1=O)NCc1ccco1 |  | inconclusive [inhibitor, single point]
10 | CCCCCCCC(=O)N/N=C/c1ccncc1 |  | inconclusive [inhibitor, single point]
11 | C/C(CC(=O)Nc1ccc(Cl)cc1C(F)(F)F)=N\NC(=O)c1cccs1 |  | inconclusive [inhibitor, single point]
12 | CC(C)(C)c1ccccc1NC(=S)NCc1ccccc1 |  | inconclusive [inhibitor, full curve, poor fit]
13 | N#C/C(=C\c1cccc(O)c1)c1nc2ccccc2o1 |  | inconclusive [inhibitor, single point]
14 | Cc1ccc2nc3c(cc(C(=O)NCC4CCCO4)c(=N)n3C3CCCC3)c(=O)n2c1 (stereo not given) | inactive: 4.92% | 
15 | Cc1ccc(C2=NNC(C(O)C(O)C(O)C(C)O)S2)cc1 (stereo not given) |  | inconclusive [inhibitor, single point]
16 | CC1(C)CC(NC(=O)COc2ccc3c4c(c(=O)oc3c2)CCCC4)CC(C)(C)N1 | inactive: -7.84% | 
17 | COCCNC(=O)CN(C(=O)Cn1nnc2ccccc21)c1ccc(F)c(Cl)c1 | inactive: 0.406% | 
18 | O=C(Nc1cccc2ccccc12)/C(=C\c1cccc([N+](=O)[O-])c1)NC(=O)c1cccs1 |  | inconclusive [activator, single point]
19 | CCC(=O)NC(=S)Nc1ccc(NC(=O)c2ccco2)c(OC)c1 |  | inconclusive [inhibitor, single point]
20 | Cc1ccccc1NC(=S)NNC(=O)c1cccnc1 |  | active: 15.8 µM
21 | S=C(Nc1ccccc1)Nc1ccccc1C#Cc1ccccc1 |  | inconclusive [inhibitor, single point]
22 | CCCN(CCC)c1nc(-c2ccccn2)nc2ccccc12 |  | active: 5.01 µM
23 | Cc1nc2cc(NC(=O)NCc3ccco3)ccc2o1 | inactive: 27.6% | 
24 | O=C(NCc1ccccc1)C1CCCN1C(=O)Nc1ccccc1[N+](=O)[O-] (stereo not given) | inactive: 14.6% | 
25 | Cc1ccccc1-c1nc(CN2CCN(C(=O)c3ccco3)CC2)c(C)o1 | inactive: 9.54% | 

Row | SMILES | activity, negative = inhibition | Potency
26 | CCCCc1ccc(S(=O)(=O)NCCc2ccncc2)cc1 |  | inconclusive [inhibitor, single point]
27 | Nc1cc(-c2ccncc2)c[nH]c1=O |  | inconclusive [activator, single point]
28 | CN1CCN(NC(=O)Nc2cc(Cl)cc(Cl)c2)CC1 | inactive: -4.99% | 
29 | CCC/C=C1\CCCOC(C(=O)NCc2ccc(C)o2)(C(F)(F)F)C1 (stereo not given) | inactive: -3.14% | 
30 | O=C(N/N=C/C1CC=CCC1)c1ccc(O)cc1O (stereo not given) |  | active: 2.82 µM
31 | COc1ccc(-c2noc(CCC(=O)O)n2)cc1 |  | inconclusive [inhibitor, full curve]
32 | COc1ccc(-n2c(-c3ccccc3)c[n+]3c2CCC3)cc1 |  | inconclusive [inhibitor, partial curve]
33 | CCN1/C(=C/C(=S)Nc2ccccc2)Sc2ccccc21 |  | active: 12.6 µM
34 | COc1ccc(Cl)cc1C(=O)Nc1ccccc1N1CCCCC1 | inactive: -3.27% | 
35 | COc1ccc(C(=O)CSc2nnc(Cn3cnc4ccccc43)o2)cc1 |  | inconclusive [inhibitor, single point]
36 | Cc1cccc(C)c1OC(=O)CSc1nnc(-c2ccccc2O)o1 |  | inconclusive [inhibitor, single point]
37 | Cc1ccc(N/C=C2\CCCCC2=O)nc1 | inactive: -12.9% | 
38 | COc1ccc(-n2nc(C(=O)NCC(=O)N3CCN(c4ccccc4F)CC3)c3ccccc3c2=O)cc1 |  | inconclusive [inhibitor, single point]
39 | NC(=O)CSc1nc(C23CC4CC(CC(C4)C2)C3)nc2ccccc12 |  | inconclusive [inhibitor, single point]
40 | COc1ccc(C(=O)n2nnc3ccccc32)cc1OC | inactive: -4.92% | 
41 | O=C(O)CCn1cc(/C=C2/NC(=S)N(c3ccccc3)C2=O)c(-c2ccccc2)n1 |  | inconclusive [activator, single point]
42 | O=C(O)COc1ccc(-c2nnn(Cc3ccccc3F)n2)cc1 |  | inconclusive [inhibitor, single point]
43 | CC(C)Cn1c(N)c(C(=O)COC(=O)c2ccc3c(c2)OCCO3)c(=O)n(C)c1=O | inactive: 1.87% | 
44 | CC(C)c1ccc(C(O)c2cnc(C(C)C)n2C)cc1 (stereo not given) |  | inconclusive [activator, partial curve]
45 | CCOC(=O)c1ccc(N2NC(=O)/C(=C/c3ccc(OC(=O)c4ccco4)c(OC)c3)C2=O)cc1 |  | inconclusive [inhibitor, single point]
46 | O=C1c2oc3ccc(Cl)cc3c(=O)c2C(c2ccccn2)N1CCCN1CCOCC1 (stereo not given) |  | inconclusive [inhibitor, single point]
47 | CCC(=O)c1ccc(OCC(O)CNCc2ccc(F)cc2)cc1 (stereo not given) | inactive: -0.142% | 
48 | O=c1c(Br)c(N2CCCCC2)cnn1-c1ccccc1 |  | inconclusive [activator, partial curve]
49 | O=C(Nc1nc2c(F)cccc2s1)c1ccc([N+](=O)[O-])o1 |  | inconclusive [inhibitor, partial curve, poor fit]
50 | COc1ccccc1NC(=O)Cc1csc(NC(=S)Nc2ccccc2)n1 |  | active: 3.16 µM

Row | SMILES | activity, negative = inhibition | Potency
51 | Cn1c(=O)c(C(=O)NCCCc2ccccc2)c(O)c2ccccc21 |  | inconclusive [inhibitor, single point]
52 | Cc1cc(Cl)ccc1OC(C)C(=O)Nc1ccccc1N1CCOCC1 (stereo not given) |  | inconclusive [inhibitor, single point]
53 | O=C(Nc1cccc([N+](=O)[O-])c1)c1cc2ccccc2cc1O |  | active: 4.47 µM
54 | CCOC(=O)c1sc(NC(=O)c2cc3ccccc3o2)nc1C |  | inconclusive [inhibitor, single point]
55 | Fc1ccc2[nH]c3c(N4CCSCC4)ncnc3c2c1 |  | inconclusive [inhibitor, single point]
56 | O=C1N/C(=N\N=C\c2cccnc2)SC1Cc1ccc(SC(F)F)cc1 (stereo not given) |  | active: 0.708 µM
57 | CC(C)CN1CCC(C(=O)N2CCN(c3ccccc3F)CC2)CC1 | inactive: -12.4% | 
58 | Cc1ccnc(NC(=O)Cc2c(F)cccc2Cl)c1 | inactive: -2.06% | 
59 | CS(=O)(=O)N(CC(=O)NCCSCc1c(F)cccc1Cl)c1ccc2c(c1)OCO2 |  | inconclusive [inhibitor, single point]
60 | CC(C)(C)c1nnc(N/N=C/c2ccc(O)cc2)n(N)c1=O |  | active: 2.24 µM
61 | COc1ccc2[nH]c3c(c2c1)CCN1C(=O)N([C@@H](C)C(=O)NCCc2ccc(F)cc2)C(=O)[C@]31C | inactive: 15.7% | 
62 | CCn1c(SCC(=O)N/N=C/c2ccc(C)o2)nnc1-c1ccc(C(C)(C)C)cc1 |  | inconclusive [inhibitor, single point]
63 | COc1ccc(Nc2ccc(OC)cc2)cc1 | inactive: 6.11% | 
64 | CS(=O)(=O)c1ccc(CNC(=O)[C@H]2C[C@@H]2[C@H](NP(=O)(c2ccccc2)c2ccccc2)c2ccccc2)cc1 | inactive: -10.1% | 
65 | CC(C)C(=O)NC(=S)N(Cc1ccccc1)Cc1ccccc1 |  | active: 5.01 µM
66 | Cc1ccc(NC(=S)N2CCCC(c3nc4ccc(C)cc4[nH]3)C2)c(C)c1 (stereo not given) |  | inconclusive [inhibitor, single point]
67 | O=C(/C(=C\c1ccccc1)c1nc2ccccc2[nH]1)c1ccc(Cl)cc1 |  | inconclusive [inhibitor, single point]
68 | COc1cc2[nH]c3c(N4CCN(c5ccccn5)CC4)ncnc3c2cc1OC |  | active: 17.8 µM
69 | Cc1c(C(=O)NCCO)[n+](=O)c2ccccc2n1[O-] | inactive: -8.7% | 
70 | O=C(O)c1ccc(-n2c(-c3ccccc3)n[nH]c2=S)cc1 | inactive: -0.673% | 
71 | CSc1ccccc1NC(=O)c1noc2c1CCC2 |  | inconclusive [inhibitor, single point]
72 | CC(C)Cc1nc(N2CCN(C(=O)c3ccco3)CC2)c(C#N)c2c1CCC2 |  | inconclusive [inhibitor, single point]
73 | Cc1no[n+]([O-])c1COc1cccc(/C=N/Nc2nncn2N)c1 |  | inconclusive [inhibitor, single point]
74 | CN(C)CCN(C(=O)c1cccs1)c1nc2cc3c(cc2s1)OCCO3 | inactive: 1.68% | 
75 | CCc1ccc(S(=O)(=O)Nc2cc(SCC(=O)O)c(O)c3ccccc23)cc1 |  | inconclusive [inhibitor, single point]
